Laboratory results: paper PMC10726135
The list shows a part of the results. At the low end of the ranking the order means little. Measured with an extract: partners may take part in the binding.

target: T1, HNF4alpha2 (COS-7 nuclear extract) (UniProt P41235); experiment: protein-binding microarray; conditions: COS-7 nuclear extract on double-stranded Agilent 4x180k PBM; binding buffer, salt, pH and temperature not given; high values mean tight binding; double strand, one strand shown; sequences stand for … in …GCCTAGGGAGATTAGAGTATCGGTCGA
T1 sequence: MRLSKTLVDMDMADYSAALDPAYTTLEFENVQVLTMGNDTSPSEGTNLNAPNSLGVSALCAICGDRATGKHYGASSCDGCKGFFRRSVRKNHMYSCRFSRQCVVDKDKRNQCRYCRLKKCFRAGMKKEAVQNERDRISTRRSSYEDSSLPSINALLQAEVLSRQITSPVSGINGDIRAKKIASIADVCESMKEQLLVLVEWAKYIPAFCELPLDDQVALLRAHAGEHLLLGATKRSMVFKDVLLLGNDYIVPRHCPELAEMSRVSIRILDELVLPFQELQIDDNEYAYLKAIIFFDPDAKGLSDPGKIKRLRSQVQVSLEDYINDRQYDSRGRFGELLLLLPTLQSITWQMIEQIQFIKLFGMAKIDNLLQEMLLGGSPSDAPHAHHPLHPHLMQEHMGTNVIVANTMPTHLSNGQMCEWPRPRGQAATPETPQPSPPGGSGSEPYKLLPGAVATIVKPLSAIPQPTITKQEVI

Sequence	binding signal (log2 normalized intensity)
TGGACAGTGTCTGACTAGAGTGGAGTGAAG	-1.36
TTCCTGACCCCTCCTCCCCCCGCCGCATCT	5.91
CTAAGATCCTAGGAGAGCCAAATCTTAAGG	-1.04
CACAACAGAAAGCAAGAGCACAAGAACAAA	-1.18
GCAGGGAGGACACAGTGTTATTTGCTGAGG	-0.84
CCTCAGAACCATTTGTGAGGATGGGCAGTC	0.734
TAGGGAAAAGATAAGGCGTAGTTCAGAGAA	-1.18
CAGAGGCCAGAAAAGCAAACCGAGATCAAG	-1.24
CAAGATTCCTTGAGCATTCCAAAAAGCTTT	-0.357
AAGCGTGCACCCCAGGTACGGAGGACAGCC	-1.01
CTAAATGGCAATGGCTGCAGCTCTTCCACG	-1.18
ATTGAGATGGTAACCACACCAAGGGGCCCC	-1.06
GGTGGACTTTGGCCGTGAAGCCGTCCTGTC	5.03
GCCACTTTCACAAATCATTACTATCTGCTG	-1.16
AATGGCAACATGTGGGCAAATAGGATTAGG	-0.651
CTTTTGTGTGTTTACATAACCTGCCCAAAG	1.05
TTTTGTGTGCTAGATACTGGAGATATGTTG	1.48
CTCAATTATAACTCATGTTCAAACAGTGGT	1.53
CAGAGGACAGGCTAATGAGATAATGCTGGT	-1.16
TAAAACGTGGTTCAGGGAGCGAATAAATAC	-1.19
CAACTGGAAGTCCAGCATTCTTTTCCCCAT	2.23
GCCCTTTATCTCCTCTCTTCTCACTTTTTA	1.82
AAGGCAGAGGAAAGCCCTAGCTGACTGCGT	-0.911
CTTCAGGTCAAGAGGGCCTCTGCTTGTCTT	0.43

Sequence	binding signal (log2 normalized intensity)
CTACTACTTGACCTTTGAAACATATCCAGA	5.48
TCACGTGGCCCTGGCATTTGGCTCAAAGGC	-1.18
TCACTGGGAGGGTGGGTTATCAGTAAGAGC	0.687
TGCCTGAGATTCCTTCAAAGATTGTGAGAC	1.15
ATTTTTAGGCTTGTTTATTCAGAGTTAGCT	-1
TATCCAGGCCACGCTGCTAATCCTACTTTA	-1.04
AAACCTTATCTATTTGCTCCCAATTTCTAC	1.08
CTTCTTGTACCTCTGGTGATTACCAGTTAT	1.41
AGAAGCTTGGTATGTCTGATGAATAGAAAG	0.62
AATGAGAATGGCCAGAGTTCCTGTGCAAGC	-1.12
ATGTCAACATCAGGGTGCCAGCAGGTGGTC	1.52
CCTGTTTTACAGGACATAGTCCTCTGCATA	1.01
TTGTTATTTATTGGCCAGTAGCTCTGAGTT	1.24
GCCCTGCTCAGGGAATGTGGGTCCACATTC	2.46
AGTAACCTGACCCCCAGTGGAATGTGCCCT	3.87
GGCATGAGGTTCTTGTAAGGTTCTTGTATC	1.69
GACACGGGCAGGTGAGAGGGCTCTGTCTGC	-1.11
ATTCATTCACCTTTCGCCCTTTGTCCTATG	5.24
CCTTTGTGTGAATCGACCTTTAGCACCGTA	6.52
CACCATTAGACTCTGCCCTCCTTAAGACCT	1.81
GAAAGTACAGTGATGTTTGTCAAATGCTTC	0.376
ATTCTGTACTTCAACCAGGTTCTCTTTACT	-0.339
ACCTGCCTCTCTCTCATGTCTGTACTGGGA	1.81
TATTATATTGTGGGTTCTTGCCCTTTGGTC	6.21

Sequence	binding signal (log2 normalized intensity)
AAACGCTCCCAATGGCTCCACCAGTCAGTC	-1.13
GGATAACCTTCCAGACAGAGAGGTCAGCAA	0.18
TAGAGCAGCAGTAGGCTCTCGGGCCAGCTG	-0.976
GAGAATGCTAGACAAGGGAATTACTCTTCT	-1.06
ATCCTGCAGTTCCTGATCTTTGACCTGGAG	5.61
CTTGTAAGCCACAGTACAAAGGTGAGCTTT	3.57
GTTTGTCTTACTGTGTTGTCGTATTTACTC	2.15
TGGGACAATGAAGCCTAAATGATAAGGGTT	-0.00453
GCATTGCCGTTCAGGGCCACGGGAAAACCT	-0.969
ACTAGCAGATTCTGTGTGGTAAAAGCACTG	0.313
ATCGCCTGAATGACCACATGCCCTCAGTAC	1.88
CTATAGTTTCTGTTTTGATCTTAAGATGAT	1.81
ACAGACAGACATTCAGAAACTGTCACTTAA	-1.13
TTTACATAACCTGCCCAAAGTGGGGCTGCT	-1.02
GCGGGTGCAGCTTCCACCTGCAAGGAAATA	-1.03
TGTGGGAGGGAAGGAGCCTAACTTTGATAG	-1.11
TCACCTTTGCCCTGTCAGTCTCTCAATGAT	3.36
TCAGCACTGAGAGATTACATTTGACTGAGG	-0.895
CCGTGCCCCCTTTTGCTTTCCGTTAGGCTA	1.63
GCACCAATGATCAAAGAGACACAATCCCTA	-1.12
AAGTGTCTTGGAGAGAAAAAATCAGAGAGC	-1.03
GAGGCTGACATCTCTCTGGCCTGTGGGGAG	-1.02
TTAGCAGATAAATCTAGGCCTAGGCATTGA	-0.468
TTTGGAATTGTGTCACTCCCCAGGAATGTG	1.89
